Article PMC7819943, “Rice protein-binding microarrays: a tool to detect cis-acting elements near promoter regions in rice”
This is one part of the list.

Target: T1, OsWOX13 (Oryza sativa, UniProt Q5QMM3 1-267)
T1 sequence: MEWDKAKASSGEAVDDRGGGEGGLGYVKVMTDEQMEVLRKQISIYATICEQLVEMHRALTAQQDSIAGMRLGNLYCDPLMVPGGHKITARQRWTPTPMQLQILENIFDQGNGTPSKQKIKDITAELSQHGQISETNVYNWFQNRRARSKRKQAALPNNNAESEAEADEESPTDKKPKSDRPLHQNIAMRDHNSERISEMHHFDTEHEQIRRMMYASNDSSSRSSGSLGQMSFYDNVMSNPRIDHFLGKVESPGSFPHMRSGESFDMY
Test: protein-binding microarray (RPBM); PBS, 2% BSA, 51.3 ng/ul salmon testes DNA, 50 uM zinc acetate, 200 nM TF, 25 C, 1 h; high values mean tight binding
Conditions: protein: recombinant; tags: N-terminal polyhistidine and DsRed monomer fusion (pET32a); label: CyDye5-dUTP incorporated in the synthesized complementary strand; 3' TTTTT single-stranded linker to array surface; dsDNA, one strand shown
Method in brief: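 In PBS with 2% BSA, salmon testes DNA and 50 µM zinc acetate, 200 nM protein was incubated on a custom Agilent array at 25 °C for 1 h and then washed off. The array had been made double-stranded by primer extension with Cy5-dUTP and blocked with 2% BSA. The proteins were transcription factors fused N-terminally to polyhistidine and DsRed, expressed in E. coli BL21-CodonPlus and purified on Ni–NTA. The binding signal is per-feature fluorescence intensity (arbitrary units) from an Axon 4000B scanner.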

Sequence | binding signal
CTTTTGACATTAATTAATCAATTGGTAGGTTTTGTGCGTTCGGAGTCACCTAGTGCAG | 36100 fluorescence intensity (a.u.)
TAAATTTTATAATCATGAATATATGAAATATAATTTCAGTCGGAGTCACCTAGTGCAG | 11400 fluorescence intensity (a.u.)
TGAAATCATAAATTGGCAATCAAATACAGAAGCATAAGAACGGAGTCACCTAGTGCAG | 31000 fluorescence intensity (a.u.)
TCATGATTGAAGGCAGTTACTCACAGTGAGTTCCAATCCACGGAGTCACCTAGTGCAG | 29400 fluorescence intensity (a.u.)
CTCAGATTAGCGAAGAAGGTTCGTTAGGCTAATCTCAGCACGGAGTCACCTAGTGCAG | 4010 fluorescence intensity (a.u.)
ATGTCAGTTCATAATTATAAAATTTACTTAGTTGAAGTTCCGGAGTCACCTAGTGCAG | 4720 fluorescence intensity (a.u.)
TAAAACTAAGAAATTAAGATAATTTTACACAAGTATACTGCGGAGTCACCTAGTGCAG | 3200 fluorescence intensity (a.u.)
TATAATTGCGCAAATTCCTCATACTCTTAAAATTGTTAACCGGAGTCACCTAGTGCAG | 18500 fluorescence intensity (a.u.)
ACAAGTAATTAATCATGCATCTCATGAGCTCACAAATATTCGGAGTCACCTAGTGCAG | 9930 fluorescence intensity (a.u.)
AGGCTAATCCAATCACCGAGCGCCACTTGTCTTCGTCTTCCGGAGTCACCTAGTGCAG | 12700 fluorescence intensity (a.u.)
TGAGCAAATTGATTAGTGGTAATTACTTCCAATAGAAATACGGAGTCACCTAGTGCAG | 28700 fluorescence intensity (a.u.)
CTCTTGTGACAAATTAACTGATATTGGCTCCATATTCTCCCGGAGTCACCTAGTGCAG | 14300 fluorescence intensity (a.u.)
ATAAAGATTTAATTGTTACGAACATAACGGTACAATCAGACGGAGTCACCTAGTGCAG | 12400 fluorescence intensity (a.u.)
GGTCAATTTACCAATATTTCGGCAAATATTATTCCATCCACGGAGTCACCTAGTGCAG | 5470 fluorescence intensity (a.u.)
ACAAATTATAGATTGCGCCTGTAACTGCGAGACGAACTTACGGAGTCACCTAGTGCAG | 23700 fluorescence intensity (a.u.)
CGTGAAATAACAAATTTATTCCTGTATATTCACCCTGTTTCGGAGTCACCTAGTGCAG | 3970 fluorescence intensity (a.u.)
GGATTAATTGTTAGTACACGCTTGTGTGGCTTTGACGCATCGGAGTCACCTAGTGCAG | 16400 fluorescence intensity (a.u.)
GAATAATTGCTAAATCTAAAAGTGACAAATGGTTAAATTCCGGAGTCACCTAGTGCAG | 23200 fluorescence intensity (a.u.)
CAAAATATCTCCTCCAATCAATCCGAAACCCAGAGGCCCACGGAGTCACCTAGTGCAG | 5650 fluorescence intensity (a.u.)
AAGAAATTACTCCTCATCAGAAGATACATCATCTTCAGAACGGAGTCACCTAGTGCAG | 3890 fluorescence intensity (a.u.)
TACATACAATCAACTACCCGCTGATCTGATGAAGTCGCCACGGAGTCACCTAGTGCAG | 3420 fluorescence intensity (a.u.)

Sequence | binding signal
AATGTAATCCTGTTTTGATTGTATACGAATTCTCCACGTACGGAGTCACCTAGTGCAG | 6340 fluorescence intensity (a.u.)
GGGTGATTTGTTGCAACGGCGCGTGTGGTGGTGCGTGTGGCGGAGTCACCTAGTGCAG | 11800 fluorescence intensity (a.u.)
ATAGTGTTGATTTTCTAATTAGTTTGATATGGGTGCCAATCGGAGTCACCTAGTGCAG | 24500 fluorescence intensity (a.u.)
TTTCAATTATAACCAAACTTTCCTCGACACAATTCCAAAGCGGAGTCACCTAGTGCAG | 5800 fluorescence intensity (a.u.)
CTTTATAATTAGTTAATCCAAATCATGATCTCATACCGGCCGGAGTCACCTAGTGCAG | 18100 fluorescence intensity (a.u.)
TTACTTTATTGATAAGCATTGATGGGGTCTTGAGACTTGACGGAGTCACCTAGTGCAG | 9630 fluorescence intensity (a.u.)
GTTGATTTGGTTCCACGCATCGCACGCAGCGTCCCGAGAGCGGAGTCACCTAGTGCAG | 14800 fluorescence intensity (a.u.)
GAGATTATTACTGCAAATTGGATATGGAGAAGTTGTTCTTCGGAGTCACCTAGTGCAG | 14000 fluorescence intensity (a.u.)
GGCAGATGATTACGAGGTGAGGCATGGTTGGGAAGAGAGTCGGAGTCACCTAGTGCAG | 6330 fluorescence intensity (a.u.)
TTTAAATGGATGATAAGTAGAATTATGTATCCTGCCAAGACGGAGTCACCTAGTGCAG | 7030 fluorescence intensity (a.u.)
GGACAGTCATCAATCATCCGTCGATTGGCCTGAGGTTGCTCGGAGTCACCTAGTGCAG | 27300 fluorescence intensity (a.u.)
TATAAATTGAAACCATTGAACGTACTCCCAACTTCCCAATCGGAGTCACCTAGTGCAG | 28600 fluorescence intensity (a.u.)
TTTGATATATCATTTAGAAATAAGATATGCCAAAGCCAGTCGGAGTCACCTAGTGCAG | 4380 fluorescence intensity (a.u.)
GCATAGATTATTATGCAGAAAGTTCATGTATATGACCAGCCGGAGTCACCTAGTGCAG | 6640 fluorescence intensity (a.u.)
CTGTGATTGATTATACTTACTGTTTGAATTTTGAATCACCCGGAGTCACCTAGTGCAG | 43800 fluorescence intensity (a.u.)
CTAATTTGTGAAGATCATTACAATCAGACGTAATTATTGTCGGAGTCACCTAGTGCAG | 10800 fluorescence intensity (a.u.)
AATTTTCCATTTTGAAAATTGACGGAAGTAGTCGCCTATCCGGAGTCACCTAGTGCAG | 3480 fluorescence intensity (a.u.)
GTAACTACATTATAAATTATATATGTATAAGAAATGTTAACGGAGTCACCTAGTGCAG | 3820 fluorescence intensity (a.u.)
ACTGATACATTGAATTAGTAATATTCTAGCTTTAGTTTATCGGAGTCACCTAGTGCAG | 3420 fluorescence intensity (a.u.)
TCCCTGATTTGCTTGTTTGCGTTAAGTAGTACAGAAAACCCGGAGTCACCTAGTGCAG | 34000 fluorescence intensity (a.u.)
AATTGATTATAAATGATTTAGAGGTATTTCCTGCTATACTCGGAGTCACCTAGTGCAG | 47800 fluorescence intensity (a.u.)

Sequence | binding signal
TTAAATTAACTCTATCATATGCTATACTTTGACTATTAATCGGAGTCACCTAGTGCAG | 18600 fluorescence intensity (a.u.)
ACGCCAAATTGACCAACATATAGCACTAGCTCCAAATAAACGGAGTCACCTAGTGCAG | 4370 fluorescence intensity (a.u.)
GGATTAAATGGAGAAAATTTCAAATTGAGTTATTTGATGGCGGAGTCACCTAGTGCAG | 24500 fluorescence intensity (a.u.)
TCATGATTTGACAATATGGTGATACAGTAAACATTTACTACGGAGTCACCTAGTGCAG | 14800 fluorescence intensity (a.u.)
CGATGATTGCTCTAAATTATATGCACCTCTCGGAATGATGCGGAGTCACCTAGTGCAG | 39400 fluorescence intensity (a.u.)
ACAAATTATCCATGTGTAATTAGTACCAAAGTATTTGTGTCGGAGTCACCTAGTGCAG | 25500 fluorescence intensity (a.u.)
CATTACAATTATAAGTTATTGAATGTGTTTATTTCGAAGCCGGAGTCACCTAGTGCAG | 6780 fluorescence intensity (a.u.)
CTCCTAATTTAGTCACTTATGGAGCTCTGATAGCTGGATGCGGAGTCACCTAGTGCAG | 14200 fluorescence intensity (a.u.)
CTTGTGTAATCAATCATTGATCGCCAGTGAGGGAAGGAAGCGGAGTCACCTAGTGCAG | 30600 fluorescence intensity (a.u.)
GTGTAATTACACTACGATTGTACTGTAATTACATCTGTCACGGAGTCACCTAGTGCAG | 29900 fluorescence intensity (a.u.)
ACACACAGCGGCAAAATTGACACATTACACATCAGGAATCCGGAGTCACCTAGTGCAG | 5060 fluorescence intensity (a.u.)
GTACTAATTAAATTGACATTAACCTAATTGCCGGTCAAATCGGAGTCACCTAGTGCAG | 42100 fluorescence intensity (a.u.)
GGGATTTGGTGAGCGATTGATTCGATTCGATTGGATTCGACGGAGTCACCTAGTGCAG | 4740 fluorescence intensity (a.u.)
CAAACTGTACCAATCAAAATAATGATAATGCCGTCCCAAACGGAGTCACCTAGTGCAG | 12800 fluorescence intensity (a.u.)
GACAATGTAATTGAACATGAGGCTTGTCCAGATACATTCTCGGAGTCACCTAGTGCAG | 7280 fluorescence intensity (a.u.)
TTTGGTTGAAATTGAAACGATGTGATGGAAAAGTTGGAAGCGGAGTCACCTAGTGCAG | 5010 fluorescence intensity (a.u.)
ACTGATTGGGATGCCACGTCAACGAAACTAGATATCCATACGGAGTCACCTAGTGCAG | 33700 fluorescence intensity (a.u.)
TCAAGGGGATTCCTCAATTAACGCTTTTCTTATAGGATATCGGAGTCACCTAGTGCAG | 5150 fluorescence intensity (a.u.)
CTCTAATGGGACTTGTTAATTAATTTTCTCCTGATTCTTGCGGAGTCACCTAGTGCAG | 19600 fluorescence intensity (a.u.)
TAATAAATTTGACTAGTTATTCAACTTTGACATAAAATCCCGGAGTCACCTAGTGCAG | 11500 fluorescence intensity (a.u.)
GCCTTAATACATATAATTACTAGGACAAATGTATACATGCCGGAGTCACCTAGTGCAG | 12300 fluorescence intensity (a.u.)

Sequence | binding signal
GAACAGTATATTTTCAAATTTAATTGGGGAATGACATTGACGGAGTCACCTAGTGCAG | 5930 fluorescence intensity (a.u.)
GATTCCAGCCAATTGACTGTGTTCCTTGATGATTATACCACGGAGTCACCTAGTGCAG | 4340 fluorescence intensity (a.u.)
TCAAGATAAAATGATTTTCTAATTGCATGGGTTGTCATTACGGAGTCACCTAGTGCAG | 14600 fluorescence intensity (a.u.)
GCATTTCTTTAATTTCTTGCTCTCCATTCTCATTCCCAATCGGAGTCACCTAGTGCAG | 3310 fluorescence intensity (a.u.)
ACAATAATATAAATCAAACGATTTGACAAGTTTTCCGGAACGGAGTCACCTAGTGCAG | 11300 fluorescence intensity (a.u.)
ATTTGTACGATAAATTGAGAGATGTAATGTGAACTTATTCCGGAGTCACCTAGTGCAG | 3920 fluorescence intensity (a.u.)
AATATTTTCAAGCATCAATCACTGTTTACAGTACGGCACACGGAGTCACCTAGTGCAG | 8430 fluorescence intensity (a.u.)
GTGATGATGAATTAATTGCTGAATGGCGAATGCAGTGCAGCGGAGTCACCTAGTGCAG | 58900 fluorescence intensity (a.u.)
CAGTACAATTAGACACATGTAACTGGCAAAACTAAATCATCGGAGTCACCTAGTGCAG | 7480 fluorescence intensity (a.u.)
AGGTCAATCTTGATAGGCCCAATTACTCCTATTGCTACTACGGAGTCACCTAGTGCAG | 6520 fluorescence intensity (a.u.)
GGGATGATCAGGGATTAGATTAGTGACAGAGGCCCGATTACGGAGTCACCTAGTGCAG | 16600 fluorescence intensity (a.u.)
TGGTGACTGTAACAAAATGTTAGGAACTCAATTGGGTTGTCGGAGTCACCTAGTGCAG | 8980 fluorescence intensity (a.u.)
GTAGATATTGATGATTTATATAACTTTGTTGTTGATGACTCGGAGTCACCTAGTGCAG | 14500 fluorescence intensity (a.u.)
TATAAATTTTAAATCTTAATTTCAGAGTTGATTTTGATTCCGGAGTCACCTAGTGCAG | 20400 fluorescence intensity (a.u.)
GCAATTATCTTGATGACATAATGTTGTATTATATAGAAATCGGAGTCACCTAGTGCAG | 4580 fluorescence intensity (a.u.)
GCCGCCACCTTCGCCTTTATAAAGCTTACCTTTGCTACCACGGAGTCACCTAGTGCAG | 64800 fluorescence intensity (a.u.)
TTTCTGATTTCTCCTCCTCTAATTACCGCCTCCTCCTCCTCGGAGTCACCTAGTGCAG | 3430 fluorescence intensity (a.u.)
GAAAATTATATATTACCTCTGGTACTGTTTGTAATTTAGGCGGAGTCACCTAGTGCAG | 9680 fluorescence intensity (a.u.)
AAATTTAAATTTTGGTTTATAAACATATGCATAAGCCAAACGGAGTCACCTAGTGCAG | 3590 fluorescence intensity (a.u.)
TGGACTAATTAGGCTCAAAAGATTCGTCTCGTGATTTTCTCGGAGTCACCTAGTGCAG | 11200 fluorescence intensity (a.u.)
TGCACGGGTTAATTATGTGGCCGACAGTGGACGACTTTGTCGGAGTCACCTAGTGCAG | 3670 fluorescence intensity (a.u.)
